In a compilation of properties of binary mixtures (doi:10.1021/acs.jced.5b00753):
The densities may have been worked out from excess volumes.

Assay: xn = mol fraction of the nth substance listed
Settings: 101 kPa

CC[n+]1ccn(C)c1.F[B-](F)(F)F + CS(C)=O
mass density [kg/m3]
Settings	x2 = 0	x2 = 0.1001	x2 = 0.2007	x2 = 0.2996	x2 = 0.4	x2 = 0.4996	x2 = 0.6002	x2 = 0.7002	x2 = 0.7996	x2 = 0.9002
303.15 K	1272.8	1266.4	–	–	–	1222.1	–	1186.2	–	1131.1
313.15 K	1265.2	1258.7	1249.5	–	1227.6	1214	1197.6	1177.7	1153.3	1121.8
323.15 K	1257.7	1251.1	1241.9	1231.7	–	1205.9	1189.3	1169.3	1144.5	–
333.15 K	1250.3	1243.7	1234.3	1224	1211.9	1198	1181.2	1160.8	1135.8	–

CC[n+]1ccn(C)c1.F[B-](F)(F)F + CC(=O)N(C)C
mass density [kg/m3]
Settings	x2 = 0	x2 = 0.0996	x2 = 0.1998	x2 = 0.2995	x2 = 0.3989	x2 = 0.5005	x2 = 0.6	x2 = 0.6996	x2 = 0.8001	x2 = 0.8994
303.15 K	–	1254.1	–	1209.3	1184.7	–	–	–	–	993.7
313.15 K	1265.2	1246.5	1225.3	1201.6	1176.9	–	–	1078.3	1035.1	985
323.15 K	–	1239	1217.7	–	1169.1	1139.8	1107.3	1070.1	1026.7	976.2
333.15 K	1250.3	1231.5	1210.2	–	–	1132	1099.3	1062	1018.2	967.5

CC[n+]1ccn(C)c1.F[B-](F)(F)F + CN(C)C=O
mass density [kg/m3]
Settings	x2 = 0	x2 = 0.1016	x2 = 0.2994	x2 = 0.3987	x2 = 0.5005	x2 = 0.6004	x2 = 0.7	x2 = 0.7997	x2 = 0.8999
303.15 K	1272.8	1256.8	1220.6	1198.4	1172.1	1141.9	1106	1063	1009.2
313.15 K	–	1249.2	1212.8	–	–	1133.8	1097.7	–	1000.2
323.15 K	–	1241.6	–	–	–	–	1089.3	1045.7	–
333.15 K	1250.3	1234.1	1197.5	–	1148.3	1117.6	1081.1	1037.2	982.3

CS(C)=O + CC[n+]1ccn(C)c1.F[B-](F)(F)F
x1 = 1
Settings	mass density [kg/m3]
303.15 K	1090.4
313.15 K	1080.4
323.15 K	1070.3
333.15 K	1060.3

CC(=O)N(C)C + CC[n+]1ccn(C)c1.F[B-](F)(F)F
x1 = 1
Settings	mass density [kg/m3]
303.15 K	931.7
313.15 K	922.4
323.15 K	913.2
333.15 K	903.9
